One experiment deals with HSkMC. The experiment is described as follows: cytotoxicity call (relative viability < 0.9). As to conditions: 10 µM.
Another experiment has as its system S. aureus RN4220. The experiment is described as follows: growth inhibition call (relative growth <= 0.2). Particulars: 50 µM.

In the antibiotic and cytotoxicity screens of Wong et al. (2023) one finds cytotoxicity call and growth inhibition call data, which are given here for 30 compounds.

The list shows a part of the results.

As to `C=CCN(C(=O)[C@H]1N(C(C)(C)CO)C(=O)[C@H]2[C@H](C(=O)O)[C@@H]3C=C[C@@]21O3)C(C)(C)C`, the cytotoxicity call with HSkMC is “inactive”. The growth inhibition call in the experiment with S. aureus RN4220 was “inactive”.
On to `CS(=O)(=O)N1CCCn2c(nnc2Cn2cccn2)C1`, for which the cytotoxicity call in the experiment on HSkMC is “inactive”. Moreover, the growth inhibition call in the experiment with S. aureus RN4220 is “inactive”.
Take `C[C@H](CO)N1C[C@H](C)[C@H](CN(C)C(=O)CCC(F)(F)F)OCc2ccccc2-c2c(n(C)c3ccccc23)C1=O`: the cytotoxicity call in the experiment with HSkMC was “inactive”. Moreover, the growth inhibition call with S. aureus RN4220 was “inactive”.
With `CO[C@@H]1CN(C)C(=O)c2ccc(NC(=O)c3cc(C)on3)cc2OC[C@@H](C)N(C(=O)C2CCC2)C[C@H]1C`, in the experiment with HSkMC, the cytotoxicity call is “inactive”. The growth inhibition call in the experiment with S. aureus RN4220 was “inactive”.
Consider `CC(C)(C)c1ccc(-c2nc3ccccc3s2)cc1`, for which the cytotoxicity call in the experiment with HSkMC is “inactive”. In addition, the growth inhibition call with S. aureus RN4220 is “inactive”.
Take `COc1ccc2c3c([nH]c2c1)[C@H](CO)N(C[C@]13CN(C1)S(=O)(=O)c1cccs1)C(=O)c1ccccc1`: the cytotoxicity call in the experiment with HSkMC was “inactive”. In addition, the growth inhibition call in the experiment on S. aureus RN4220 is “inactive”.
With `C[C@@H]1CCCCO[C@H](CN(C)C(=O)Nc2cccc3ccccc23)[C@H](C)CN([C@@H](C)CO)C(=O)c2cc(NC(=O)Cc3ccccc3)ccc2O1`, in the experiment on HSkMC, the cytotoxicity call was “inactive”. Moreover, the growth inhibition call with S. aureus RN4220 is “inactive”.
For the compound `COc1ccc(NC(=O)Nc2ccc3c(c2)C(=O)N([C@H](C)CO)C[C@@H](C)[C@@H](CN(C)S(=O)(=O)c2cccs2)OCCCC[C@H](C)O3)cc1`, in the experiment on HSkMC, the cytotoxicity call is “inactive”. For the same compound, in the experiment on S. aureus RN4220, the growth inhibition call is “inactive”.
For `C[C@@H]1CN([C@H](C)CO)C(=O)c2cccc(NC(=O)Nc3ccccc3)c2O[C@H]1CN(C)C(=O)Nc1ccc(C(F)(F)F)cc1`, the cytotoxicity call in the experiment with HSkMC was “inactive”. Besides, the growth inhibition call in the experiment on S. aureus RN4220 is “inactive”.
Turning to `O=C(C[C@H]1C=C[C@@H](NC(=O)C2CC2)[C@@H](CO)O1)NCCCN1CCOCC1`, in the experiment with HSkMC, the cytotoxicity call is “inactive”. Further, the growth inhibition call in the experiment with S. aureus RN4220 was “inactive”.
Consider `c1ccc(CNc2nn[nH]n2)cc1`, for which the cytotoxicity call in the experiment with HSkMC was “inactive”. Also, the growth inhibition call in the experiment with S. aureus RN4220 was “inactive”.
As to `O=C(CN1CCOCC1)NCC[C@H]1CC[C@@H](NS(=O)(=O)c2ccc(F)cc2)[C@H](CO)O1`, in the experiment on HSkMC, the cytotoxicity call is “inactive”. Also, in the experiment with S. aureus RN4220, the growth inhibition call is “inactive”.
With `C[C@@H]1CN([C@@H](C)CO)C(=O)c2cc(NC(=O)c3ccncc3)ccc2O[C@@H]1CN(C)S(=O)(=O)c1cccs1`, in the experiment on HSkMC, the cytotoxicity call is “inactive”. The growth inhibition call with S. aureus RN4220 is “inactive”.
Turning to `C=CCN1C(=O)[C@@]2(O[C@@H](CCn3cc(CCO)nn3)[C@H]([Si](C)(C)c3ccc(OC)cc3)[C@H]2C)c2cc(N3CCC3=O)ccc21`, the cytotoxicity call in the experiment with HSkMC is “inactive”. In addition, the growth inhibition call in the experiment on S. aureus RN4220 was “inactive”.
With `C[C@@H]1CN([C@H](C)CO)C(=O)c2cccc(NS(=O)(=O)c3cn(C)cn3)c2O[C@H]1CN(C)Cc1ccc(C(=O)O)cc1`, the cytotoxicity call in the experiment on HSkMC was “inactive”. Besides, the growth inhibition call in the experiment with S. aureus RN4220 was “inactive”.
Regarding `Cc1noc(C)c1NC(=O)N[C@@H]1C=C[C@H](CC(=O)NCCCN(C)C)O[C@@H]1CO`, the cytotoxicity call in the experiment on HSkMC was “inactive”. In addition, the growth inhibition call with S. aureus RN4220 is “inactive”.
As for `CC(C)NC(=O)Nc1ccc2c(c1)CC(=O)N([C@H](C)CO)C[C@H](C)[C@H](CN(C)C(=O)NC1CCCCC1)O2`, the cytotoxicity call in the experiment on HSkMC is “inactive”. In the experiment on S. aureus RN4220, the growth inhibition call was “inactive”.
Regarding `Cc1ccc(S(=O)(=O)Nc2ccc3c(c2)C(=O)N([C@@H](C)CO)C[C@H](C)[C@H](CN(C)C(=O)Nc2ccc(F)cc2)OCCCC[C@@H](C)O3)cc1`, the cytotoxicity call with HSkMC is “inactive”. Besides, the growth inhibition call in the experiment on S. aureus RN4220 is “inactive”.
Turning to `CC(=O)NCCCC[C@@H]1NC(=O)[C@@H]2C[C@H](C(=O)NCCCCCNC(=O)CS)[C@H](c3cccc(OCCO)c3)N2C1=O`, the cytotoxicity call in the experiment with HSkMC was “inactive”. The growth inhibition call with S. aureus RN4220 was “inactive”.
Turning to `COc1ccc2c3c(n(c2c1)C)[C@@H](CO)N(C[C@]13CN(C1)S(=O)(=O)c1ccc(cc1)C)S(=O)(=O)c1ccc(cc1)C`, in the experiment on HSkMC, the cytotoxicity call was “inactive”. In addition, the growth inhibition call in the experiment with S. aureus RN4220 is “inactive”.
Consider `Nc1cc(F)ccc1CO`, for which, in the experiment with HSkMC, the cytotoxicity call is “inactive”. Besides, in the experiment on S. aureus RN4220, the growth inhibition call was “inactive”.
Regarding `CC(C)NC(=O)N(C)C[C@H]1Oc2c(NS(=O)(=O)c3ccccc3)cccc2C(=O)N([C@H](C)CO)C[C@@H]1C`, the cytotoxicity call in the experiment with HSkMC is “inactive”. Further, the growth inhibition call with S. aureus RN4220 is “inactive”.
With `CCc1c(C)[nH]c2ncnn2c1=O`, in the experiment with HSkMC, the cytotoxicity call is “inactive”. In the experiment with S. aureus RN4220, the growth inhibition call was “inactive”.
With `C[C@@H]1CN([C@H](C)CO)C(=O)CCCn2nncc2CO[C@@H]1CN(C)C(=O)Nc1ccc(N2CCN(C)CC2)cc1`, the cytotoxicity call in the experiment on HSkMC is “inactive”. In addition, in the experiment with S. aureus RN4220, the growth inhibition call was “inactive”.
Take `O=C1CN(S(=O)(=O)Cc2ccccc2)C[C@H]2[C@H](c3ccc(C#Cc4ccc(F)cc4)cc3)[C@H](CO)N12`: in the experiment on HSkMC, the cytotoxicity call is “active”. Besides, the growth inhibition call in the experiment on S. aureus RN4220 is “inactive”.
On the same counts, the results for `C[C@H]1CCCCO[C@H](CN(C)C(=O)c2ccccc2)[C@@H](C)CN([C@@H](C)CO)C(=O)c2cc(NC(=O)NC3CCCCC3)ccc2O1` are “inactive” and “inactive”.
The matching figures for `COc1ccc(S(=O)(=O)N(C)C[C@H]2OCCCC[C@@H](C)Oc3ccc(NC(=O)Nc4ccc5c(c4)OCO5)cc3C(=O)N([C@H](C)CO)C[C@@H]2C)cc1`: “inactive” and “inactive”.
With `COc1ccc2c3c([nH]c2c1)[C@H](CO)N(C[C@]13CCN(CC1)CC1CCCC1)S(=O)(=O)c1cn(cn1)C`, the cytotoxicity call with HSkMC was “inactive”. Moreover, in the experiment on S. aureus RN4220, the growth inhibition call was “inactive”.
For `Nc1ncnc2c1ncn2[C@@H]1O[C@H](CO)[C@@H](O)[C@@H]1O`, in the experiment on HSkMC (human skeletal muscle cells), the cytotoxicity call was “inactive”. Besides, in the experiment with S. aureus RN4220, the growth inhibition call is “inactive”.
For the compound `C[C@@H]1CN([C@@H](C)CO)C(=O)c2cccc(NC(=O)Nc3ccc4c(c3)OCO4)c2O[C@H]1CN(C)Cc1ccc(Oc2ccccc2)cc1`, the cytotoxicity call with HSkMC was “inactive”. In addition, the growth inhibition call in the experiment on S. aureus RN4220 is “inactive”.
